Assay results published in PubChem BioAssay AID1794842 (National Center for Advancing Translational Sciences (NCATS), 2023).
The campaign covered roughly 2,800 compounds. Fewer than 10 were called active. Calls come from the whole dose curve; as a rule, active = well fitted curve in the direction sought with a large enough effect; inconclusive = small, poorly fitted or top-dose-only effect, or another doubt; inactive = no such curve, though single readings can be large or run the other way. The list shows a part of the results.

Biological target: Metallo-beta-lactamase type 2 (Klebsiella pneumoniae) (UniProt C7C422)
Assay: qHTS to identify inhibitors of the New Delhi Metallo-beta-lactamase (NDM): Meropenem screen against the machine-based learning selections. Note: % of control where 0% means no effect.
Details: Purified NDM-1, meropenem hydrolysis, absorbance 300 nm; at 38.4 µM (top of the series) unless noted
Method in brief: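 NDM-1 (2 nM final) in 50 mM HEPES pH 7.0, 1 uM Zn2SO4, 0.01% Tween20 was preincubated with compounds for >30 min. Nitrocefin (16.7 uM final) was read at 485 nm after 15 min, and meropenem (50 uM final) at 300 nm after 30 min.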

Sequence of UniProt C7C422 (C7C422 whole entry, looked up): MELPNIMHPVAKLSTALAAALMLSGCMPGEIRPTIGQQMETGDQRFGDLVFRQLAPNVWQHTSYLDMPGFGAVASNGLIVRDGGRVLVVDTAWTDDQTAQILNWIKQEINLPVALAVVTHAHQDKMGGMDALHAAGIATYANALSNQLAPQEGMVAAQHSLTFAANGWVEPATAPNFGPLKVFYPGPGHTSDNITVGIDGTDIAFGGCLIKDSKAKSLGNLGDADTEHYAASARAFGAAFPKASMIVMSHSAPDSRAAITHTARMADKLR

Activity change, negative = inhibition, inactive:
CN1C[C@@H](NC(=O)c2ccccn2)C[C@H]1c1nc(-c2ccc(Cl)cc2)no1 13.9% [at 57.5 µM]
O=C(O)C[C@@H]1CCN(S(=O)(=O)c2ccccc2)C[C@@H]1CCN1CCN(c2cccc(C(F)(F)F)c2)CC1 0.911%
O=C(O)c1cc(-c2cccc(CO)c2)cc(S(=O)(=O)NC2CCCC2)c1 1.38%
COc1ccc(S(=O)(=O)N2C[C@@H](F)C[C@H]2C(=O)N2CCCCC2)cc1OC -2.33%
Cc1ccccc1-c1cnc2[nH]cc(CC(=O)NCCN3CCOCC3)c2c1 3.34% [at 57.5 µM]
COCCOc1ncccc1-c1noc([C@@H]2CCCN2C2CCN(C)CC2)n1 4.18% [at 57.5 µM]
COc1cccc(CN2CCCC3(CCN(C(=O)c4ccc(OC)nc4OC)C3)C2)c1 (configuration not stated) -0.954%
NC(=O)C1CCCN(CCNc2cc(-c3ccccc3)nc3ccnn23)C1 (configuration not stated) 29.7%
O=C(c1cnccn1)N1CC[C@H]2COC(=O)N2c2cc(F)ccc2C1 0.729% [at 57.5 µM]
CCN1CCC(CC(=O)N2CCCC3(C=Cc4ccccc4O3)CC2)CC1 (configuration not stated) -1.29%
Cn1cc(CNC(=O)C[C@@H]2C[C@H]3O[C@H](CNCc4ccccc4OC(F)(F)F)[C@@H](O)[C@H]3O2)cn1 1.44%
NC1CCN(C(=O)C2CCCN(c3nc(-c4ccccc4)nc4c3CCC4)C2)CC1 (configuration not stated) -0.926%
COC(=O)c1ccc2nc(C[C@@H]3C[C@@H](C(C)C)[C@H](CNCc4ccccc4F)C=C3C)[nH]c2c1 -1.26%
O=C([C@H]1CCC[C@@H](O)C1)N1CCN(Cc2ccc(C(F)(F)F)cc2)CC1 0.65%
Cc1cc(=O)n(CC(=O)Nc2cccc(C(C)C)c2)c(N2CCOCC2)n1 -0.201%
CN1C(=O)COC[C@@H]1[C@H](O)c1ccc(NC(=O)c2ccc3c(c2)OCO3)cc1 12.6% [at 57.5 µM]
CC1(C)C[C@H](NCc2ccc(CO)o2)[C@@]2(CCC(=O)N3CCOCC3)CC[C@](C)(O)C[C@@H]12 -0.751%
CN1CCCC2(CCN(S(=O)(=O)c3ccc(F)c(F)c3F)C2)C1=O (configuration not stated) -0.416%
CN1[C@@H](CCC(=O)Nc2ccccc2)CNC(=O)[C@@H]2[C@H]1CCN2Cc1ccc(S(C)(=O)=O)cc1 -2.99%
NS(=O)(=O)c1ccc(CCNCC2(O)CNCCOC2)cc1 (configuration not stated) -2.88%
O=C(Cn1ccn2nc3c(c2c1=O)CCCC3)NCc1ccc2c(c1)OCO2 1.26%
NC(=O)[C@H](CC1CCCCC1)NC(=O)[C@@H]1CN(C(=O)c2cccnc2)CCN1C(=O)C1CCNCC1 -0.826%
CC(Cc1cccnc1)NC(=O)c1cn(Cc2ccccc2C(F)(F)F)nn1 (configuration not stated) 2.52%
O=C(Cn1ccn2nc(-c3ccc(F)cc3)c(CO)c2c1=O)N1CCCCCC1 3.05%
CC(O)CNS(=O)(=O)c1cccc(C(=O)Nc2cccc3c2CCC3)c1 (configuration not stated) 2.1%
O=C(NCCc1ccccc1)c1cnc2n[nH]c(-c3ccccc3)c2n1 1.69% [at 57.5 µM]
Cc1ccc(NC(=O)N2CCCC(c3nnc(CN(C)C)n3C)C2)cc1C (configuration not stated) 1.17%
CC(C)(CC(=O)O)CC(=O)N1CCN2C(=O)c3cc(-c4ccc(Cl)cc4)ccc3NC(=O)[C@H]2C1 7.44%
O=C(O)[C@@H]1CN(C(=O)CCc2cccc(Cl)c2)C[C@H]1c1cccc(F)c1 1.05%
COc1ccc(CN2CCNc3cc(Nc4cccnc4)ncc3C2)cc1O 3.47% [at 57.5 µM]
O=C([C@H]1O[C@H](CCN2C[C@@H]3C[C@H](C2)c2cccc(=O)n2C3)CC[C@@H]1O)N1CCN(c2ccccc2)CC1 6.63%
Oc1cccc(-c2cc(-c3cccnc3)c3cncn3c2)c1 27.1% [at 76.7 µM]
O=C(O)c1ccnc(-c2ccnc(NCCc3noc(C4CCC4)n3)n2)c1 14.3%
O=C(CCCc1ccccc1)N[C@@H]1CN(c2ccncn2)C[C@H]1CO 0.377%
CCN(CC)C(=O)[C@@H]1CCC[C@@H](NC2CCC2)CN(C)C(=O)C1 1.17% [at 57.5 µM]
O=C1CCC2(CCN(C/C=C/c3ccccc3)CC2)CN1CCCn1ccnc1 4.26%
CC1(C(=O)Nc2ccc(C(N)=O)cc2)CCCc2cnc(Nc3ccccc3)nc21 (configuration not stated) 2.65% [at 57.5 µM]
c1cncc(Nc2cc3c(cn2)CN(Cc2ccsc2)CCN3)c1 6.63% [at 57.5 µM]
CCc1ccc(-c2nc(C3CC(=O)N(c4ccc(C)cc4)C3)no2)cc1 (configuration not stated) 1.01%
CCc1cc(C(=O)N[C@H](c2ccc(OC)nc2)C2CC(O)C2)ccn1 (some centres not stated) 1.5%
CN1C(=O)COC[C@@H]1[C@H](O)c1ccc(NC(=O)c2ccc(F)cc2)cc1 6.57% [at 57.5 µM]
O=C(CCCc1ccccc1)NCC(=O)N1CCCCCCNC(=O)CC1c1ccccc1 (configuration not stated) 1.21%
O[C@@H]1C[C@@H](c2nc(-c3ccc4c(c3)OCO4)no2)N(Cc2cc3ccccc3o2)C1 3.26% [at 57.5 µM]
COc1cccc(NC(=O)COc2cccc(-c3nnc4n3CCCC4)c2)c1 -1%
O=S(=O)(NC[C@H]1O[C@@H](CO)[C@@H](O)[C@H]1N1CCCC1)c1cccs1 40.4% [at 57.5 µM]
CNc1cc(C)nc(N2C[C@H]3CN(C(=O)N(C)C)C[C@@]3(C(=O)O)C2)n1 -0.5%
COCc1noc([C@@H]2CC(F)(F)CN2C(=O)c2occc2C)n1 -3.8%
Cn1ccc2c(C(=O)NCc3cccnc3)nc(Nc3ccccc3)cc21 4.12% [at 57.5 µM]
COC[C@@H]1CN(C(=O)c2cncc(C)c2)C[C@H]1C(N)=O -0.0842%
O=C(NC[C@H]1OC[C@@H](NCc2cnc[nH]2)[C@@H]1O)C1CCCC1 10.9% [at 57.5 µM]
O=C(Cc1ccccc1)Nc1ccc([C@@H](O)[C@H]2COCC(=O)N2CC2CC2)cc1 -0.857% [at 57.5 µM]
O=C(O)c1cc(Br)cc(S(=O)(=O)NCc2ccccn2)c1 54.8%
COc1ccc2nc(C[C@@H]3C[C@@H](C(C)C)[C@H](CNC(=O)Nc4ccc(F)cc4)C=C3C)[nH]c2c1 0.701%
CC(C)CN(Cc1cccnc1)C1CN(S(=O)(=O)Cc2ccccc2F)C1 0.438%
COc1ccc(NC(=O)c2ccc3c(c2)N(C)C2CCCCN2C3=O)cc1Cl (configuration not stated) 2.08%
COc1ccc2[nH]c(C(=O)N[C@H]3COC[C@H]3Cc3cc(C)no3)c(C)c2c1 10.9%
CC(C)C[C@@H]1N[C@H](C(=O)NC2CC2)Cc2cn(Cc3nccn3C)c3cccc1c23 5.79% [at 57.5 µM]
O=C(c1ccsc1)N1CCCn2cc(-c3ccccc3F)nc21 6.32%
Cc1cc(=O)[nH]c(NCCNC(=O)c2cccc(CCC(C)(C)O)c2)n1 -1.06%
CCOc1cc(=O)n2c(c1C(=O)Nc1ccc(C)cc1)CCCC2 -0.585%
Cc1nc(NCCc2ccn[nH]2)cc(C2CC(O)C2)n1 (configuration not stated) 0.665%
Cc1ccc(CN2CCC[C@H]2c2nc(-c3ccc(OC4CCCCC4)nc3)no2)cc1 0.899% [at 57.5 µM]
Cn1cnc2cc(-c3ccc(CO)cc3)cc(C(=O)NCc3cccnc3)c21 15% [at 57.5 µM]
COc1ccc(-c2nnc([C@H]3CCN(c4ncccn4)C3)o2)cc1 1.6% [at 57.5 µM]
COc1ccc(CN2CCNc3cnc(Nc4cccnc4)cc3C2)cc1O 1.27% [at 57.5 µM]
Cc1cc(C)n(Cc2c(C(=O)NCC34CCC=C3N(C)C(=O)CC4)noc2C)n1 (configuration not stated) -0.0133%
COc1ccc(C(=O)N2C[C@@H]3OCC(=O)N(CC4CC4)[C@@H]3C2)cc1 0.531% [at 57.5 µM]
CCN(CC)CC[C@H]1CN(C(=O)NC2CCCCC2)CC[C@H]1CC(=O)O -0.852% [at 57.5 µM]
Cc1cc(C)nc(N2CCN(C(=O)C3CC(=O)N(CC(C)C)C3)CC2)n1 (configuration not stated) 4.38%
O=C(Nc1cccc(-c2ccc(F)cc2)c1)C1CCCN(C(=O)c2cccnc2)C1 (configuration not stated) 1.68%
Cc1noc(C)c1S(=O)(=O)N1C[C@@H](C(N)=O)[C@H](C2CCN(C)CC2)C1 0.148%
NC(=O)Cc1c[nH]c2ncc(-c3cccc(OC(F)(F)F)c3)cc12 4.52% [at 57.5 µM]
CC(C)C[C@@H](NC(=O)C1=C[C@@H](NC(=O)c2cnccn2)[C@@H](O)[C@H](O)C1)C(N)=O 11% [at 57.5 µM]
O=C1N(C2CCOCC2)C[C@H]2CN(Cc3ccccc3F)CCN12 0.445% [at 57.5 µM]
Cc1ccc2c(c1)SCC(=O)N2CC(=O)N(C)Cc1ccoc1 0.897%
NC(=O)c1csc(S(=O)(=O)N2CCC(CO)(CN3CCCC3)CC2)c1 -2.29%
COc1ccc2c(c1)CN(C(=O)c1cccc(C#N)c1)CC[C@H]1COC(=O)N21 1.45% [at 57.5 µM]
